{"source": "the antibiotic and cytotoxicity screens of Wong et al. (2023)", "key": {"HSkMC": {"system": "HSkMC", "assay": "cytotoxicity call (relative viability < 0.9)", "conditions": "10 µM"}, "HepG2": {"system": "HepG2", "assay": "cytotoxicity call (relative viability < 0.9)", "conditions": "10 µM"}, "S. aureus RN4220": {"system": "S. aureus RN4220", "assay": "growth inhibition call (relative growth <= 0.2)", "conditions": "50 µM"}}, "note": "This is one part of the list."}
{"smiles": "Cc1noc(C)c1S(=O)(=O)N(C)C[C@H]1Oc2ccc(NC(=O)Cn3cnnn3)cc2C(=O)N([C@@H](C)CO)C[C@H]1C", "values": [{"measurement": "cytotoxicity call", "setting": "HSkMC", "result": "inactive"}, {"measurement": "cytotoxicity call", "setting": "HepG2", "result": "inactive"}, {"measurement": "growth inhibition call", "setting": "S. aureus RN4220", "result": "inactive"}]}
{"smiles": "C[C@@H]1CN([C@@H](C)CO)C(=O)c2cc(-c3ccncc3)cnc2O[C@@H]1CN(C)S(=O)(=O)c1ccc(F)cc1", "values": [{"measurement": "cytotoxicity call", "setting": "HSkMC", "result": "inactive"}, {"measurement": "cytotoxicity call", "setting": "HepG2", "result": "inactive"}, {"measurement": "growth inhibition call", "setting": "S. aureus RN4220", "result": "inactive"}]}
{"smiles": "CCCN(C)C[C@@H]1OCCCC[C@H](C)Oc2ccc(NC(=O)c3ccccc3)cc2C(=O)N([C@H](C)CO)C[C@@H]1C", "values": [{"measurement": "cytotoxicity call", "setting": "HSkMC", "result": "inactive"}, {"measurement": "cytotoxicity call", "setting": "HepG2", "result": "inactive"}, {"measurement": "growth inhibition call", "setting": "S. aureus RN4220", "result": "inactive"}]}
{"smiles": "CN1CCN(c2c(F)cc3c(=O)c(C(=O)O)cn(CCF)c3c2F)CC1", "values": [{"measurement": "cytotoxicity call", "setting": "HSkMC", "result": "inactive"}, {"measurement": "cytotoxicity call", "setting": "HepG2", "result": "inactive"}, {"measurement": "growth inhibition call", "setting": "S. aureus RN4220", "result": "active"}]}
{"smiles": "C[C@@H]1CCCCO[C@@H](CN(C)CC2CC2)[C@H](C)CN([C@H](C)CO)C(=O)c2cc(NC(=O)Nc3ccccc3)ccc2O1", "values": [{"measurement": "cytotoxicity call", "setting": "HSkMC", "result": "inactive"}, {"measurement": "cytotoxicity call", "setting": "HepG2", "result": "inactive"}, {"measurement": "growth inhibition call", "setting": "S. aureus RN4220", "result": "inactive"}]}
{"smiles": "C[C@H](CO)N1C[C@H](C)[C@@H](CN(C)S(=O)(=O)c2ccccc2)OCCCC[C@H](C)Oc2ccc(NC(=O)C3CCCCC3)cc2C1=O", "values": [{"measurement": "cytotoxicity call", "setting": "HSkMC", "result": "inactive"}, {"measurement": "cytotoxicity call", "setting": "HepG2", "result": "inactive"}, {"measurement": "growth inhibition call", "setting": "S. aureus RN4220", "result": "inactive"}]}
{"smiles": "CCCCN(CCCC)[NH2+][O-]", "values": [{"measurement": "cytotoxicity call", "setting": "HSkMC", "result": "inactive"}, {"measurement": "cytotoxicity call", "setting": "HepG2", "result": "inactive"}, {"measurement": "growth inhibition call", "setting": "S. aureus RN4220", "result": "inactive"}]}
{"smiles": "CC(=O)C1(O)CCC2C3C=C(Cl)C4=CC(=O)C5CC5C4(C)C3CCC21C", "note": "(stereo not drawn)", "values": [{"measurement": "cytotoxicity call", "setting": "HSkMC", "result": "inactive"}, {"measurement": "cytotoxicity call", "setting": "HepG2", "result": "inactive"}, {"measurement": "growth inhibition call", "setting": "S. aureus RN4220", "result": "inactive"}]}
{"smiles": "COc1cccc(C(=O)Nc2ccc3c(c2)C(=O)N(C)[C@H]2CC[C@H](CC(=O)NCC4CC4)O[C@@H]2CO3)c1", "values": [{"measurement": "cytotoxicity call", "setting": "HSkMC", "result": "inactive"}, {"measurement": "cytotoxicity call", "setting": "HepG2", "result": "inactive"}, {"measurement": "growth inhibition call", "setting": "S. aureus RN4220", "result": "inactive"}]}
{"smiles": "C[C@@H]1CN([C@@H](C)CO)S(=O)(=O)c2ccc(-c3ccc(C(=O)N(C)C)cc3)cc2O[C@H]1CN(C)C(=O)C1CC1", "values": [{"measurement": "cytotoxicity call", "setting": "HSkMC", "result": "inactive"}, {"measurement": "cytotoxicity call", "setting": "HepG2", "result": "inactive"}, {"measurement": "growth inhibition call", "setting": "S. aureus RN4220", "result": "inactive"}]}
{"smiles": "C[C@H]1CN([C@@H](C)CO)C(=O)c2cc(NS(=O)(=O)c3cn(C)cn3)ccc2O[C@H]1CN(C)C(=O)Nc1ccc(F)cc1", "values": [{"measurement": "cytotoxicity call", "setting": "HSkMC", "result": "inactive"}, {"measurement": "cytotoxicity call", "setting": "HepG2", "result": "inactive"}, {"measurement": "growth inhibition call", "setting": "S. aureus RN4220", "result": "inactive"}]}
{"smiles": "C[C@H](CO)N1C[C@H](C)[C@H](CN(C)Cc2ccc(Oc3ccccc3)cc2)Oc2c(NC(=O)c3ccc(-c4nccs4)cc3)cccc2C1=O", "values": [{"measurement": "cytotoxicity call", "setting": "HSkMC", "result": "active"}, {"measurement": "cytotoxicity call", "setting": "HepG2", "result": "inactive"}, {"measurement": "growth inhibition call", "setting": "S. aureus RN4220", "result": "inactive"}]}
{"smiles": "C[C@H]1CN([C@@H](C)CO)C(=O)c2cc(NS(=O)(=O)c3ccc(F)cc3)ccc2O[C@H]1CN(C)S(=O)(=O)c1cn(C)cn1", "values": [{"measurement": "cytotoxicity call", "setting": "HSkMC", "result": "inactive"}, {"measurement": "cytotoxicity call", "setting": "HepG2", "result": "inactive"}, {"measurement": "growth inhibition call", "setting": "S. aureus RN4220", "result": "inactive"}]}
{"smiles": "C[C@H](NC(=O)[C@H]1N[C@H]2c3ccc(-c4ccc(C(=O)N(C)C)cc4)c(=O)n3C[C@H]2[C@@H]1CO)c1ccccc1", "values": [{"measurement": "cytotoxicity call", "setting": "HSkMC", "result": "inactive"}, {"measurement": "cytotoxicity call", "setting": "HepG2", "result": "inactive"}, {"measurement": "growth inhibition call", "setting": "S. aureus RN4220", "result": "inactive"}]}
{"smiles": "C[C@H]1CN([C@@H](C)CO)C(=O)c2cc(NC(=O)Nc3ccc4c(c3)OCO4)ccc2O[C@@H]1CN(C)S(=O)(=O)c1cn(C)cn1", "values": [{"measurement": "cytotoxicity call", "setting": "HSkMC", "result": "inactive"}, {"measurement": "cytotoxicity call", "setting": "HepG2", "result": "inactive"}, {"measurement": "growth inhibition call", "setting": "S. aureus RN4220", "result": "inactive"}]}
{"smiles": "C[C@@H]1CN([C@H](C)CO)C(=O)c2cccc(NS(=O)(=O)c3cn(C)cn3)c2O[C@H]1CN(C)C(=O)Nc1ccccc1", "values": [{"measurement": "cytotoxicity call", "setting": "HSkMC (human skeletal muscle cells)", "result": "inactive"}, {"measurement": "cytotoxicity call", "setting": "HepG2", "result": "inactive"}, {"measurement": "growth inhibition call", "setting": "S. aureus RN4220", "result": "inactive"}]}
